Measured values published in the supplement of paper PMC9927326.
MIC of clinical C. albicans isolates, CLSI broth microdilution (ranges and time not stated); higher = less susceptible. Call: susceptible or wild type [S] / resistant or non-wild type [R] by CLSI breakpoints or epidemiological cut-offs; intermediate and dose-dependent carry no call here (the paper groups them with resistant). '<=' and '>=' mark each drug's lowest and highest value, inferred; the source prints them plain. Isolates are numbered anew.

Experiments:
Experiment in all cases: CLSI broth microdilution.
[1] = compound: CCCCCOc1ccc(-c2cc(-c3ccc(C(=O)N[C@H]4C[C@@H](O)[C@@H](O)NC(=O)[C@@H]5[C@@H](O)[C@@H](C)CN5C(=O)[C@H]([C@H](O)CC(N)=O)NC(=O)[C@H]([C@H](O)[C@@H](O)c5ccc(O)c(OS(=O)(=O)O)c5)NC(=O)[C@@H]5C[C@@H](O)CN5C(=O)[C@H]([C@@H](C)O)NC4=O)cc3)no2)cc1 [micafungin]
[2] = compound: OC(Cn1cncn1)(Cn1cncn1)c1ccc(F)cc1F [fluconazole]
[3] = compound: CCCCCOc1ccc(-c2ccc(-c3ccc(C(=O)N[C@H]4C[C@@H](O)[C@@H](O)NC(=O)[C@@H]5[C@@H](O)[C@@H](C)CN5C(=O)[C@H]([C@@H](C)O)NC(=O)[C@H]([C@H](O)[C@@H](O)c5ccc(O)cc5)NC(=O)[C@@H]5C[C@@H](O)CN5C(=O)[C@H]([C@@H](C)O)NC4=O)cc3)cc2)cc1 [anidulafungin]
[4] = compound: Nc1[nH]c(=O)ncc1F [flucytosine]
[5] = compound: CCC(C)n1ncn(-c2ccc(N3CCN(c4ccc(OCC5COC(Cn6cncn6)(c6ccc(Cl)cc6Cl)O5)cc4)CC3)cc2)c1=O [itraconazole]
[6] = compound: CC[C@H](C)C[C@H](C)CCCCCCCCC(=O)N[C@H]1C[C@@H](O)[C@@H](NCCN)NC(=O)[C@@H]2[C@@H](O)CCN2C(=O)[C@H]([C@H](O)CCN)NC(=O)[C@H]([C@H](O)[C@@H](O)c2ccc(O)cc2)NC(=O)[C@@H]2C[C@@H](O)CN2C(=O)[C@H]([C@@H](C)O)NC1=O [caspofungin]
[7] = compound: C[C@@H]1[C@H](O)[C@@H](C)/C=C/C=C/C=C/C=C/C=C/C=C/C=C/[C@H](O[C@@H]2O[C@H](C)[C@@H](O)[C@H](N)[C@@H]2O)C[C@@H]2O[C@](O)(C[C@@H](O)C[C@@H](O)[C@H](O)CC[C@@H](O)C[C@@H](O)CC(=O)O[C@H]1C)C[C@H](O)[C@H]2C(=O)O [amphotericin B]
[8] = compound: CC[C@@H]([C@H](C)O)n1ncn(-c2ccc(N3CCN(c4ccc(OC[C@@H]5CO[C@@](Cn6cncn6)(c6ccc(F)cc6F)C5)cc4)CC3)cc2)c1=O [posaconazole]
[9] = compound: C[C@@H](c1ncncc1F)[C@](O)(Cn1cncn1)c1ccc(F)cc1F [voriconazole]

Row | Test System | MIC [1] | MIC [2] | MIC [3] | MIC [4] | MIC [5] | MIC [6] | MIC [7] | MIC [8] | MIC [9]
1 | Candida albicans isolate 47 (Erg11p: V437I,E266D, Fur1p: WT, Tac1p: S937L,I895T,L695F,I558V,F189S,L131I) | 0.015 mg/L [S] | 1 mg/L [S] | 0.06 mg/L [S] | ≤ 0.06 mg/L [S] | 0.03 mg/L [S] | 0.03 mg/L [S] | 0.5 mg/L [S] | 0.015 mg/L [S] | 0.015 mg/L [S]
2 | Candida albicans isolate 230 (Erg11p: K143R,Y132H,T123I, Fur1p: R101C, Tac1p: WT) | ≤ 0.008 mg/L [S] | 32 mg/L [R] | ≤ 0.015 mg/L [S] | 0.5 mg/L [S] | 0.5 mg/L [R] | 0.03 mg/L [S] | 0.5 mg/L [S] | 0.12 mg/L [R] | 2 mg/L [R]
3 | Candida albicans isolate 96 (Erg11p: WT, Fur1p: WT, Tac1p: N896S) | ≤ 0.008 mg/L [S] | 0.25 mg/L [S] | 0.03 mg/L [S] | ≤ 0.06 mg/L [S] | 0.06 mg/L [S] | 0.06 mg/L [S] | 0.5 mg/L [S] | 0.015 mg/L [S] | ≤ 0.008 mg/L [S]
4 | Candida albicans isolate 146 (Erg11p: D153E, Fur1p: WT, Tac1p: I558V,A377V,M170V) | 0.015 mg/L [S] | 0.5 mg/L [S] | ≤ 0.015 mg/L [S] | ≤ 0.06 mg/L [S] | 0.06 mg/L [S] | 0.06 mg/L [S] | 0.5 mg/L [S] | 0.06 mg/L [S] | ≤ 0.008 mg/L [S]
5 | Candida albicans isolate 51 (Erg11p: K342R,E266D, Fur1p: WT, Tac1p: I558V,A377V,F189S,N174D,M170I,K87N) | 0.015 mg/L [S] | 1 mg/L [S] | 0.06 mg/L [S] | ≤ 0.06 mg/L [S] | 0.06 mg/L [S] | 0.03 mg/L [S] | 0.25 mg/L [S] | 0.015 mg/L [S] | ≤ 0.008 mg/L [S]
6 | Candida albicans isolate 122 (Erg11p: WT, Fur1p: R101C, Tac1p: WT) | ≤ 0.008 mg/L [S] | 0.5 mg/L [S] | 0.03 mg/L [S] | 0.5 mg/L [S] | 0.06 mg/L [S] | 0.015 mg/L [S] | 0.5 mg/L [S] | 0.015 mg/L [S] | ≤ 0.008 mg/L [S]
7 | Candida albicans isolate 46 (Erg11p: WT, Fur1p: WT, Tac1p: WT) | 0.015 mg/L [S] | 1 mg/L [S] | 0.06 mg/L [S] | ≤ 0.06 mg/L [S] | 0.03 mg/L [S] | 0.03 mg/L [S] | 0.25 mg/L [S] | 0.03 mg/L [S] | 0.015 mg/L [S]
8 | Candida albicans isolate 166 (Erg11p: Y132H,T123I, Fur1p: R101C, Tac1p: WT) | 0.03 mg/L [S] | ≥ 256 mg/L [R] | 0.12 mg/L [S] | ≤ 0.06 mg/L [S] | 0.5 mg/L [R] | 0.03 mg/L [S] | 1 mg/L [S] | 1 mg/L [R] | ≥ 8 mg/L [R]
9 | Candida albicans isolate 182 (Erg11p: V488I,E266D, Fur1p: WT, Tac1p: N896S) | ≤ 0.008 mg/L [S] | 0.5 mg/L [S] | ≤ 0.015 mg/L [S] | ≤ 0.06 mg/L [S] | 0.06 mg/L [S] | 0.03 mg/L [S] | 0.25 mg/L [S] | 0.03 mg/L [S] | 0.015 mg/L [S]
